Experimental findings from publication PMC12136788 are described below.

The other results are listed elsewhere or left out.

The chains are these.
T1: UNK ZnF1-3 (human, UniProt Q9C0B0 31-174)
T1 sequence: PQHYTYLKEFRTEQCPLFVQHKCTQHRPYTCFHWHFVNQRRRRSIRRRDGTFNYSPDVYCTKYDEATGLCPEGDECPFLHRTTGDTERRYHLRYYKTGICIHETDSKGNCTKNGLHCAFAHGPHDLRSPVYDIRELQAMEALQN

B1: chr9:111175386:111175387:+_ENSMUSG00000046785_ENSMUST00000060711|mus_mus|motif|central (ssRNA)
RNA: GGGAGUUCUACAGUCCGACGAUCCUCAGUUAGUAGAGGCUGAAACUCCGGUCGCCUAACACCUCUGGUCUUAAUCAUAACGGCCCAUUCAGAUAUGGUAUUUAUGAUCUGAUUAAUAUCAACAUCAUAAGAACUCAACAGUUCCAACAGAGGAUUGAGCAUCA
B2: chr14:32562060:32562061:+_ENSG00000100852_ENST00000539826|hu_hu|FALSE|FALSE (ssRNA)
RNA: GGGAGUUCUACAGUCCGACGAUCCUUUAUUUGGGUUUCAUUAAAUUUACGAGGAUAUGUACCAGCAGGUACAUCUACAAAAGGACAUUGCAACUUGUUUGCCAACUGCUGCCCUUGGUGCCUGAGAAUUGGUAGAUUCUUACUCAACAGAGGAUUGAGCAUCA
B3: chr16:75674161:75674162:-_ENSG00000065427_ENST00000302445|hu_hu|FALSE|FALSE (ssRNA)
RNA: GGGAGUUCUACAGUCCGACGAUCCCUACCUGCCACCUUUAAGGUGAUGUCAGUCAGGUGAUCCCCAGGCUGCAGGUGACUAUAUUUUUGGAUGAAGUCAGUGAGUGAGAUGUCUACAUGGAACUUGUGUGGGUAUGGGUCUUCCAACAGAGGAUUGAGCAUCA
B4: chr4:57314706:57314707:+_ENSG00000128050_ENST00000264221|hu_mus|hu_hu_hu_mus_True|58_58 (ssRNA)
RNA: GGGAGUUCUACAGUCCGACGAUCCAGAAUUUCAAAAAUAGCUUGUGUGGCAUGACUCAUGAUGUCCACUUCAGUCUGGCCUAUAAGAAGGCCAGCAAAACAGAAUUUUGCAGCAAUGAGUUGCUCCUCAGACCACUGUGGAUCCAACAGAGGAUUGAGCAUCA
B5: chr7:7679991:7679992:-_ENSG00000106399_ENST00000396682|hu_hu|hu_hu_hu_mus_False|8_68 (ssRNA)
RNA: GGGAGUUCUACAGUCCGACGAUCUGGGAUGAAUCUUUUCCAGCUUCCCCACGAAGCACACGGGCCGGUCGAUGAAUUGUGGUAACAUGCUGGCGUUGACGCGCGCUUUGGGGAGCUGCAUUAUGUCCACCAUGAUUCUGCCGCCAACAGAGGAUUGAGCAUCA
B6: chr1:23637546:23637547:-_ENSG00000125944_ENST00000302271|hu_hu|motif|central (ssRNA)
RNA: GGGAGUUCUACAGUCCGACGAUCGUAGUAAUCUGGAGGGUAGCCAUAUCCACCUCUCCCCCCACCACGACCCCGACCUCGGAUUGGAGGUGGCAUGCGAGGAGGAGGGUGGUAGUAAUAAUCUUCAUACGCAGUGCUUCUGGACAACAGAGGAUUGAGCAUCA

This assay has as its target T1, UNK ZnF1-3. The assay is described as follows: nsRBNS (natural sequence RNA bind-n-seq); RBNS binding buffer (assumed for nsRBNS): 25 mM Tris pH 7.5, 150 mM KCl, 3 mM MgCl2, 0.01% Triton X-100, 500 ug/ml BSA, 20 U/ml SUPERase-In, 4 C; UNK is unkempt and MSI1 is Musashi-1; names of the RNAs are library labels; protein concentration not given here; high values mean tight binding.
Molecule B1 displayed a binding signal of 0.749 enrichment R. The result for B2 reads 0.672 enrichment R. Under B3 stands 0.846 enrichment R; under B4, 0.819 enrichment R; under B5, 0.493 enrichment R. Under B6 stands 0.564 enrichment R.
